# According to the supplement of paper PMC8728848:
# This is one part of the list.
# B1: AT1G15820(NC) (Arabidopsis thaliana) (protein)
# chain: MAMAVSGAVLSGLGSSFLTGGKRGATALASGVGDAIAPFSFGSLLGTQLLLMGWVESKRWVDFFNPDSQSVEWATPWSKTAENFANYTGDQGYPGGRFFDPLGLAGKNRDGVYEPDFEKLERLKLAEIKHSRLAMVAMLIFYFEAGQGKTPLGALGL
# Assays:
# Assay in all cases: glycan array binding signal (z-score within array); higher = stronger binding
# Conditions in all cases: glycan notation: IUPAC condensed, linker removed
# [1] = target: Neu5Ac(a2-6)Gal(b1-4)GlcNAc(b1-6)[Gal(b1-3)]GalNAc
# How it was run: (§1)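 From the Consortium for Functional Glycomics database, 3228 arrays were curated, keeping only those whose protein sequence was available. Binding is given as a within-array Z-score averaged across arrays sharing a protein sequence and across linkers. Negative Z-scores can be read as non-binding.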
# [2] = target: Neu5Ac(a2-6)Gal(b1-4)GlcNAc6S
# How it was run: as §1
# Neu5Ac(a2-6)GalNAc = target: Neu5Ac(a2-6)GalNAc
# How it was run: as §1
# [3] = target: Neu5Ac(a2-6)GalNAc(b1-4)GlcNAc
# How it was run: as §1
# [4] = target: Neu5Ac(a2-6)GalNAc(b1-4)GlcNAc6S
# How it was run: as §1
# [5] = target: Neu5Ac(a2-6)GlcNAc(b1-4)GlcNAc
# How it was run: as §1
# [6] = target: Neu5Ac(a2-6)GlcNAc(b1-4)GlcNAc(b1-4)GlcNAc
# How it was run: as §1
# Neu5Ac(a2-8)Neu5Ac = target: Neu5Ac(a2-8)Neu5Ac
# How it was run: as §1
# [7] = target: Neu5Ac(a2-8)Neu5Ac(a2-3)Gal(b1-3)GalNAc(b1-4)[Neu5Ac(a2-3)]Gal(b1-4)Glc
# How it was run: as §1
# [8] = target: Neu5Ac(a2-8)Neu5Ac(a2-3)Gal(b1-3)GalNAc(b1-4)[Neu5Ac(a2-8)Neu5Ac(a2-3)]Gal(b1-4)Glc
# How it was run: as §1
# [9] = target: Neu5Ac(a2-8)Neu5Ac(a2-3)Gal(b1-4)Glc
# How it was run: as §1
# [10] = target: Neu5Ac(a2-8)Neu5Ac(a2-3)Gal(b1-4)GlcNAc
# How it was run: as §1
# [11] = target: Neu5Ac(a2-8)Neu5Ac(a2-3)[Gal(b1-3)GalNAc(b1-4)]Gal(b1-4)Glc
# How it was run: as §1
# [12] = target: Neu5Ac(a2-8)Neu5Ac(a2-3)[GalNAc(b1-4)]Gal(b1-4)Glc
# How it was run: as §1
# [13] = target: Neu5Ac(a2-8)Neu5Ac(a2-8)Neu5Ac
# How it was run: as §1
# [14] = target: Neu5Ac(a2-8)Neu5Ac(a2-8)Neu5Ac(a2-3)Gal(b1-4)Glc
# How it was run: as §1
# [15] = target: Neu5Ac(a2-8)Neu5Ac(a2-8)Neu5Ac(a2-3)[Gal(b1-3)GalNAc(b1-4)]Gal(b1-4)Glc
# How it was run: as §1
# [16] = target: Neu5Ac(a2-8)Neu5Ac(a2-8)Neu5Ac(a2-3)[GalNAc(b1-4)]Gal(b1-4)Glc
# How it was run: as §1
# [17] = target: Neu5Ac(a2-8)Neu5Ac(a2-8)Neu5Ac(a2-8)Neu5Ac(a2-3)[GalNAc(b1-4)]Gal(b1-4)Glc
# How it was run: as §1
# [18] = target: Neu5Ac(a2-8)Neu5Gc(a2-3)Gal(b1-4)GlcNAc
# How it was run: as §1
# [19] = target: Neu5Ac(b2-6)Gal(b1-4)GlcNAc
# How it was run: as §1
# Neu5Ac(b2-6)GalNAc = target: Neu5Ac(b2-6)GalNAc
# How it was run: as §1
# [20] = target: Neu5Ac9Ac(a2-3)Gal(b1-3)GlcNAc
# How it was run: as §1
# [21] = target: Neu5Ac9Ac(a2-3)Gal(b1-4)GlcNAc
# How it was run: as §1
# [22] = target: Neu5Ac9Ac(a2-6)Gal(b1-4)GlcNAc
# How it was run: as §1
# [23] = target: Neu5Gc(a2-3)Gal(b1-3)GlcNAc
# How it was run: as §1
# [24] = target: Neu5Gc(a2-3)Gal(b1-3)[Fuc(a1-4)]GlcNAc
# How it was run: as §1
# Neu5Gc(a2-3)Gal(b1-4)Glc = target: Neu5Gc(a2-3)Gal(b1-4)Glc
# How it was run: as §1
# [25] = target: Neu5Gc(a2-3)Gal(b1-4)GlcNAc
# How it was run: as §1
# [26] = target: Neu5Gc(a2-3)Gal(b1-4)GlcNAc(b1-3)Gal(b1-4)GlcNAc(b1-2)Man(a1-3)[Neu5Gc(a2-3)Gal(b1-4)GlcNAc(b1-3)Gal(b1-4)GlcNAc(b1-2)Man(a1-6)]Man(b1-4)GlcNAc(b1-4)GlcNAc
# How it was run: as §1
# [27] = target: Neu5Gc(a2-3)Gal(b1-4)[Fuc(a1-3)]GlcNAc
# How it was run: as §1
# [28] = target: Neu5Gc(a2-6)Gal(b1-4)GlcNAc
# How it was run: as §1
# Neu5Gc(a2-6)GalNAc = target: Neu5Gc(a2-6)GalNAc
# How it was run: as §1
# [29] = target: Neu5Gc(a2-8)Neu5Ac(a2-3)Gal(b1-4)GlcNAc
# How it was run: as §1
# [30] = target: Neu5Gc(a2-8)Neu5Gc(a2-3)Gal(b1-4)GlcNAc
# How it was run: as §1
# [31] = target: Neu5Gc(a2-8)Neu5Gc(a2-3)Gal(b1-4)GlcNAc(b1-3)Gal(b1-4)GlcNAc
# How it was run: as §1
# [32] = target: Neu5Gc(a2-8)Neu5Gc(a2-6)Gal(b1-4)GlcNAc
# How it was run: as §1
# [33] = target: Neu5Gc(b2-6)Gal(b1-4)GlcNAc
# How it was run: as §1
binder,measurement,setting,value
B1,glycan array binding signal (z-score),[1],-0.525
same,glycan array binding signal (z-score),[2],-0.322
same,glycan array binding signal (z-score),Neu5Ac(a2-6)GalNAc,-0.294
same,glycan array binding signal (z-score),[3],-0.525
same,glycan array binding signal (z-score),[4],0.073
same,glycan array binding signal (z-score),[5],-0.516
same,glycan array binding signal (z-score),[6],-0.481
same,glycan array binding signal (z-score),Neu5Ac(a2-8)Neu5Ac,-0.211
same,glycan array binding signal (z-score),[7],-0.455
same,glycan array binding signal (z-score),[8],5.08
same,glycan array binding signal (z-score),[9],-0.371
same,glycan array binding signal (z-score),[10],-0.632
same,glycan array binding signal (z-score),[11],-0.228
same,glycan array binding signal (z-score),[12],-0.273
same,glycan array binding signal (z-score),[13],-0.269
same,glycan array binding signal (z-score),[14],-0.588
same,glycan array binding signal (z-score),[15],-0.448
same,glycan array binding signal (z-score),[16],-0.15
same,glycan array binding signal (z-score),[17],-0.598
same,glycan array binding signal (z-score),[18],0.008
same,glycan array binding signal (z-score),[19],-0.364
same,glycan array binding signal (z-score),Neu5Ac(b2-6)GalNAc,-0.386
same,glycan array binding signal (z-score),[20],-0.4
same,glycan array binding signal (z-score),[21],-0.551
same,glycan array binding signal (z-score),[22],-0.538
same,glycan array binding signal (z-score),[23],-0.092
same,glycan array binding signal (z-score),[24],-0.75
same,glycan array binding signal (z-score),Neu5Gc(a2-3)Gal(b1-4)Glc,-0.435
same,glycan array binding signal (z-score),[25],-0.319
same,glycan array binding signal (z-score),[26],-0.257
same,glycan array binding signal (z-score),[27],-0.005
same,glycan array binding signal (z-score),[28],-0.077
same,glycan array binding signal (z-score),Neu5Gc(a2-6)GalNAc,-0.493
same,glycan array binding signal (z-score),[29],0.402
same,glycan array binding signal (z-score),[30],-0.473
same,glycan array binding signal (z-score),[31],-0.196
same,glycan array binding signal (z-score),[32],0.345
same,glycan array binding signal (z-score),[33],0.358
